# Measurements from the supplement of paper PMC3334620.
# In all, about 33,000 sequences were measured (“E-score (-0.5 to 0.5)”: median about -0.011, highest 2% from about 0.28 on). The list shows a part of the results.
# Target: T1, Gcr1 (UniProt P07261)
# T1 sequence: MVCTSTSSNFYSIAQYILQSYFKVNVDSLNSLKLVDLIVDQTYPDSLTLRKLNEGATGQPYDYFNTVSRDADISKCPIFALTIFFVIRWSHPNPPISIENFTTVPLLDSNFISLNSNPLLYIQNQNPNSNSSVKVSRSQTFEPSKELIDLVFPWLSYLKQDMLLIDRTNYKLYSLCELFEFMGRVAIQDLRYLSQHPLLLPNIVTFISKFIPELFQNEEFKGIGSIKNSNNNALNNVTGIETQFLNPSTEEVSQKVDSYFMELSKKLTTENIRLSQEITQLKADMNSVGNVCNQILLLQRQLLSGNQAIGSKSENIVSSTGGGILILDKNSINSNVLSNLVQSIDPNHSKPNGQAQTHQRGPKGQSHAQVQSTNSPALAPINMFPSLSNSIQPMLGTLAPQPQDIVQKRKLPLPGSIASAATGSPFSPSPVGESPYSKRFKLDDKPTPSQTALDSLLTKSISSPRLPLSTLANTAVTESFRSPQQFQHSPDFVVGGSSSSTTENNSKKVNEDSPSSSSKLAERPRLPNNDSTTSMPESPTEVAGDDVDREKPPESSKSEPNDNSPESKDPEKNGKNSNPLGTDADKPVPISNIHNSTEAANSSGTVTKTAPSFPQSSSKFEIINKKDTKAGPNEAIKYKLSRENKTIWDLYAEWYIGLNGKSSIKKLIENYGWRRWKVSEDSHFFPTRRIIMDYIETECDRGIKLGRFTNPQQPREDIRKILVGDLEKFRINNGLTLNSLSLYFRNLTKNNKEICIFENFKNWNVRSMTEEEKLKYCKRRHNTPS
# Assay: PBM E-score (8-mer binding enrichment) (E-score (-0.5 to 0.5)); higher = stronger / more preferred TF binding; most listed sequences are background and not binding sites
# Settings: protein concentration: 100 nM; construct: GST-full length
# Outline: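 Universal all-10-mer Agilent arrays, double-stranded by primer extension on fresh or once-stripped slides, were probed with about 100-200 nM GST-tagged yeast transcription factors made by PURExpress. Fluorescent anti-GST detected bound protein, and masliner normalised the scans. E-scores from the Universal PBM Analysis Suite were given to each ungapped eight-base word pooled with its reverse complement.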
row,Sequence,PBM E-score
1,TCACTACA,0.126
2,CCACATAG,0.0534
3,AAAGTCAC,0.0974
4,AAAGGATG,0.189
5,TACCAATA,0.00103
6,AAAAAGCA,0.0551
7,GAGTTCAC,-0.0309
8,ATACTACC,0.0228
9,AAAGACAC,-0.0476
10,ATGTAACG,-0.0781
11,CAGCCAAG,0.0163
12,AACTGGGG,0.084
13,AGTTCTAG,-0.0557
14,AGGCTAGC,-0.281
15,CCCTTTCG,0.0339
16,AACTTCAC,-0.0727
17,TAAGAGAA,-0.0423
18,GATGGCTA,-0.115
19,TGAACACA,-0.0975
20,AGTCATAG,-0.151
21,ATAGTCCG,-0.228
22,GATGGGCC,-0.117
23,GATGAACC,-0.0731
24,CGTCAGCC,-0.143
25,ATAATACA,0.106

row,Sequence,PBM E-score
1,CGAACAAC,-0.0516
2,ACCTAGGG,-0.124
3,AGACCATG,-0.268
4,ATAGGTAC,-0.0413
5,CTTTCGAA,-0.0912
6,AGAACTTA,-0.111
7,AAACTAGA,-0.0509
8,CTCTACTC,-0.084
9,GTTAGAGA,-0.0751
10,AATTCCCA,-0.0967
11,GTGTCGTA,-0.154
12,ACCGGTAA,0.102
13,AATTATTG,0.00444
14,CCCTGCCG,-0.252
15,GAGGAGGA,-0.217
16,CAGATAAC,-0.13
17,ACTCGTGG,-0.0835
18,CTCTCAGA,0.0815
19,AATATGAC,0.127
20,CCTATTAA,0.0644
21,ACCGTTAG,-0.0968
22,AGCCAATG,0.0118
23,ATTTCTGC,0.13
24,CTTAAGCA,0.114
25,AGAGAGGA,0.109

row,Sequence,PBM E-score
1,CCCGCATA,0.173
2,GCCGTACA,-0.146
3,AAACAACC,0.0203
4,GTTAGAAA,-0.103
5,AAAGAGTT,-0.155
6,CCACGGGG,-0.0972
7,CCGCCAAC,-0.16
8,GTGAGAAA,-0.18
9,AACTTGGT,0.0662
10,AGACTGAA,-0.00354
11,CCCGTTCG,-0.132
12,ACCTCCAT,-0.24
13,AAAGTCCG,-0.239
14,AGAATCGA,0.0158
15,CGTATCAG,-0.0534
16,CGGGTCAC,-0.0739
17,AAACGGTT,0.0961
18,ACGCCTAG,-0.0205
19,GTCGGTCA,-0.37
20,ATTCAGAG,-0.0292
21,CCGAACTA,0.147
22,CACGAGAC,0.00916
23,CGGACAGA,-0.238
24,GGTACGCA,-0.129
25,GTGCCGTA,-0.168

row,Sequence,PBM E-score
1,CTTTTAAC,-0.0302
2,GTGCGTCA,-0.0562
3,CAACTAGC,0.093
4,TAGATTCA,0.11
5,ACACGCGA,0.018
6,ATCCAGCC,0.173
7,CTTATGTA,-0.00244
8,TAACGTAA,-0.128
9,CCCGGACA,-0.0249
10,CCGAGTTA,-0.159
11,TCGGCACA,-0.129
12,GACGGCCC,-0.152
13,ACCCGGCT,-0.0691
14,ATCATCCG,-0.191
15,AAGCAGGC,-0.232
16,CTGTTCCA,-0.119
17,GACTGTTA,-0.228
18,TCTGCACA,0.11
19,AGCACACA,-0.0788
20,CTGCACAA,-0.0488
21,CAACCGAC,-0.0348
22,AAACACTC,0.0102
23,AGGATCTC,0.0956
24,AGGAGTCC,0.303
25,CTTCGTGA,0.188

row,Sequence,PBM E-score
1,ATGGGTGC,0.19
2,ACGTTAAC,-0.116
3,CGAAGATA,-0.0833
4,ACATTCAC,-0.042
5,GTCTCCCA,-0.0386
6,ACGCTCTG,-0.306
7,CCACCATA,-0.00956
8,ATTTGATG,-0.0787
9,GGCCGTCA,-0.0384
10,GAAATCTC,0.064
11,CTCTTGGA,0.0381
12,CCAGGGAG,-0.218
13,ATTGACTA,0.109
14,CCGCCTCA,-0.224
15,CCTGCGCG,-0.142
16,CATCCTTA,0.131
17,AGAAGGGG,-0.101
18,ATGATATG,0.0296
19,CCTTCTCG,-0.144
20,CAGAGAGG,0.071
21,GGAGTGAC,-0.0705
22,GTGCACGA,-0.11
23,AGGCAAAC,-0.275
24,ACTTAGCG,-0.0156
25,ATAAGGGC,-0.11

row,Sequence,PBM E-score
1,ATCACCAC,-0.102
2,CACCGCTC,0.00387
3,GTCGAACA,0.0829
4,ACTTTGAA,-0.121
5,CAGTAGTC,0.00525
6,ACAGAACT,-0.0122
7,AACGATGG,-0.184
8,ACCCTGAT,0.05
9,AGATGAGA,-0.055
10,CTGATATC,0.0702
11,AATCTAAA,0.00538
12,GCGGAAAA,0.0127
13,AAGACAAC,-0.247
14,GCAAGGAC,-0.302
15,GCACCTGA,0.0656
16,ATTTGACC,-0.059
17,ACACAGTA,0.0108
18,AAGTCTAG,0.0248
19,ACCATGAC,-0.0943
20,ATTGAACA,0.0317
21,ATACCCAG,0.137
22,CCCGAGAA,0.199
23,AGGTGACG,-0.0858
24,AAGAGTCG,-0.00583
25,ATATAACG,-0.174

row,Sequence,PBM E-score
1,CGTACGGC,-0.0842
2,CAATATAA,0.0242
3,TGCGAGCA,0.126
4,CGTGTAGA,0.128
5,CACGTCAC,-0.00164
6,GGGATCCA,0.347
7,CGGCCAGA,0.0223
8,ACTGTATG,-0.0177
9,GGTGACTA,-0.122
10,AACCCATT,0.179
11,CCTGATGC,-0.033
12,ACGGCTAG,-0.0903
13,CCTCTATA,0.266
14,ACGAAAAA,0.124
15,CCCCGCAG,0.0653
16,AAAGCTAG,-0.153
17,CTCGAGGC,-0.00152
18,CGGCTAAG,-0.117
19,CCGGCACG,0.117
20,GGGTCCCA,0.24
21,CGCAGGCC,-0.201
22,GAAACGGA,0.102
